The text below walks through data of paper PMC7819943, “Rice protein-binding microarrays: a tool to detect cis-acting elements near promoter regions in rice”.

The other results are listed elsewhere or left out.

The target in the test is T1, OsWOX13 (Oryza sativa, UniProt Q5QMM3 1-267).
T1 sequence: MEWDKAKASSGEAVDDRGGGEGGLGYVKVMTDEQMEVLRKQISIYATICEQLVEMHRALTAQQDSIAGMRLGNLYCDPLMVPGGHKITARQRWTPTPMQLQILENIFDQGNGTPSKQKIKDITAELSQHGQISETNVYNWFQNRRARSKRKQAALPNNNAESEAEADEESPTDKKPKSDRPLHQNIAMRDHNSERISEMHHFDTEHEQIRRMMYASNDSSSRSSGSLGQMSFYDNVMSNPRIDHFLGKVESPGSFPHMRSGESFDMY
As to the kind of experiment: protein-binding microarray (RPBM); PBS, 2% BSA, 51.3 ng/ul salmon testes DNA, 50 uM zinc acetate, 200 nM TF, 25 C, 1 h; high values mean tight binding. The conditions noted are these: protein: recombinant; tags: N-terminal polyhistidine and DsRed monomer fusion (pET32a); label: CyDye5-dUTP incorporated in the synthesized complementary strand; 3' TTTTT single-stranded linker to array surface; dsDNA, one strand shown. The gist of the method:
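A custom Agilent array was converted to double-stranded form by primer extension with Cy5-dUTP and blocked with 2% BSA. Protein at 200 nM in PBS with 2% BSA, salmon testes DNA and 50 µM zinc acetate was applied for 1 h at 25 °C, followed by washing. The proteins were polyhistidine–DsRed N-terminal fusions of transcription factors, expressed in E. coli BL21-CodonPlus and Ni–NTA-purified. The binding signal is per-feature fluorescence intensity (arbitrary units) from an Axon 4000B scanner.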
Regarding “ATTTGATTGTTTAGCTATAGTCTACTATTTTAGGGTTTGGCGGAGTCACCTAGTGCAG”, the binding signal is 48000 fluorescence intensity (a.u.).

Take “ATCACAGATTGTCTTGAATGATCCTGTTGAGAAGTATATGCGGAGTCACCTAGTGCAG”: the binding signal was 7240 fluorescence intensity (a.u.).

Regarding “TATGATGGTCAATTTGCAGGTGGGACTGAATATTTCTTGTCGGAGTCACCTAGTGCAG”, the binding signal is 13100 fluorescence intensity (a.u.).

Turning to “ATAATAATGGTTTAAACATACTTACCCATCCTCAGGCCAGCGGAGTCACCTAGTGCAG”, the binding signal was 3670 fluorescence intensity (a.u.).

As to “GTAGGAACACTAATTAATCACTCATTGATATGTGTAATCCCGGAGTCACCTAGTGCAG”, the binding signal was 14700 fluorescence intensity (a.u.).

Consider “CCACTACAACTGATTACTCTCTCTATCCCAGAATATAGCACGGAGTCACCTAGTGCAG”, for which the binding signal is 3510 fluorescence intensity (a.u.).

Take “AGATAGATAGATAGATAGATAGATAGATAGATAGATAGATCGGAGTCACCTAGTGCAG”: the binding signal was 55700 fluorescence intensity (a.u.).

Consider “TTCACATGACAAATTTATAAATGGCGTTATCAAATTTACCCGGAGTCACCTAGTGCAG”, for which the binding signal was 14500 fluorescence intensity (a.u.).

“TATACAATTATTTAAACAAAATTACCACTTTGCTACAACTCGGAGTCACCTAGTGCAG”: the binding signal was 8450 fluorescence intensity (a.u.).

Turning to “GGTTCATTGAGTTAACGAGCTAATCAAGCTCAACGAGCCACGGAGTCACCTAGTGCAG”, the binding signal is 9140 fluorescence intensity (a.u.).

In the case of “GAAAATTTCTAGAGTTTAATTAGTGCAGAGTGCAGAAGGTCGGAGTCACCTAGTGCAG”, the binding signal was 7530 fluorescence intensity (a.u.).

Regarding “GTGTCAGTAATTTGGTGCGGAATAAATCCACCAATCAGCTCGGAGTCACCTAGTGCAG”, the binding signal was 7210 fluorescence intensity (a.u.).

For “AGAATATTCATAATTTATATTTAAATATTATCTTACATGACGGAGTCACCTAGTGCAG”, the binding signal is 3300 fluorescence intensity (a.u.).

As to “GGTCGACTTACGCCAATCACCAAGTCGCGCGTACGCACGGCGGAGTCACCTAGTGCAG”, the binding signal is 5000 fluorescence intensity (a.u.).

Turning to “TTCCCAAACAGACATGATTTAGCGTGAGACGTCGTTGCTACGGAGTCACCTAGTGCAG”, the binding signal is 10400 fluorescence intensity (a.u.).

“TAATTAATTATAATTAATTAATCCTACTGGTGCTTTCCTTCGGAGTCACCTAGTGCAG”: the binding signal was 54300 fluorescence intensity (a.u.).

For “GTCTTCAAATTATATTAGTTATAACTATAGTTCACACAATCGGAGTCACCTAGTGCAG”, the binding signal is 4610 fluorescence intensity (a.u.).

Take “CTGCACGAAGTACTGACCGGAGTGTACGGGACAAGCTCCGCGGAGTCACCTAGTGCAG”: the binding signal was 4440 fluorescence intensity (a.u.).

In the case of “TCCTTTAATTATATAATAGATTTCCAGATATTCTTTTACCCGGAGTCACCTAGTGCAG”, the binding signal is 26000 fluorescence intensity (a.u.).

For the sequence “TTGAGCTTTTATCTCTTGATTGGTTCTTTGTGTTATTCTCCGGAGTCACCTAGTGCAG”, the binding signal is 6300 fluorescence intensity (a.u.).

With “ATGATTATGTATGTAGCTAGCCAGAGCGATTTGGAACGGACGGAGTCACCTAGTGCAG”, the binding signal was 4670 fluorescence intensity (a.u.).

Turning to “CAATAATGGTAAATTAACTAGTCAAAGTGAAAGTGTTTAGCGGAGTCACCTAGTGCAG”, the binding signal was 18000 fluorescence intensity (a.u.).

Turning to “GGCCGCTGATCAGTTTGTAATTAGTTTAATCCGAACGTACCGGAGTCACCTAGTGCAG”, the binding signal was 19100 fluorescence intensity (a.u.).

For the sequence “ACAAATTAATGCATGCCAACTCCAAAGTCAAATATGTTCTCGGAGTCACCTAGTGCAG”, the binding signal is 7230 fluorescence intensity (a.u.).

With “CAATGATTTAGCATTGTTTCTCACAAAACCATTCAAGTTCCGGAGTCACCTAGTGCAG”, the binding signal was 5520 fluorescence intensity (a.u.).

For the sequence “TGATAAATTACCCATCTATTAGTCATACCAGTGGCTTTGTCGGAGTCACCTAGTGCAG”, the binding signal is 18400 fluorescence intensity (a.u.).

With “TGTCTCTTTCTGTCTATCTCCCTCCCTGTCATTCTATCTCCGGAGTCACCTAGTGCAG”, the binding signal was 4430 fluorescence intensity (a.u.).

With “CAGACGGATTATGTAATTTGTTTTATTATTAATTAGTCTACGGAGTCACCTAGTGCAG”, the binding signal was 13100 fluorescence intensity (a.u.).

“TATAGGTAGCCAATTACAAGCTAATTAAAGCAGTAACCGTCGGAGTCACCTAGTGCAG”: the binding signal is 12500 fluorescence intensity (a.u.).

Consider “CTATTATACTGATGATAACCAATCATACTTCTCGAGGTTTCGGAGTCACCTAGTGCAG”, for which the binding signal was 11300 fluorescence intensity (a.u.).

Take “GCTGATTAGGATCTATTAAACCTGCTCTAAGGGCATCAGTCGGAGTCACCTAGTGCAG”: the binding signal is 33000 fluorescence intensity (a.u.).

Turning to “CTCTTCACATGATATTATAATTGAAGCATATAAACTTGCACGGAGTCACCTAGTGCAG”, the binding signal was 7260 fluorescence intensity (a.u.).

Regarding “ACATCACTAATTAATGTAATTTAAGTGGCTCATTTGCTCACGGAGTCACCTAGTGCAG”, the binding signal was 31900 fluorescence intensity (a.u.).

Consider “ACTTAATAGATAATAAATATAATAGTTGTCTCTTCATATTCGGAGTCACCTAGTGCAG”, for which the binding signal was 12900 fluorescence intensity (a.u.).

Consider “CTTCTGCTAGGTTTGATTGCTTCGTGTTTGATTGCGCGGTCGGAGTCACCTAGTGCAG”, for which the binding signal is 13100 fluorescence intensity (a.u.).

Regarding “TTGCCACTGATTAATTTTACAAGAGTTAGATTTGACTTTTCGGAGTCACCTAGTGCAG”, the binding signal was 8860 fluorescence intensity (a.u.).

Consider “ATCATGGACATAATTTTGTTTAATCCCCACCAAATTGTCCCGGAGTCACCTAGTGCAG”, for which the binding signal is 7000 fluorescence intensity (a.u.).

On to “ATGCATGATTAATTTCTACTTTCTAGTAATAGGAAATCTCCGGAGTCACCTAGTGCAG”, for which the binding signal is 11700 fluorescence intensity (a.u.).

As for “GAACTAATCACAAATTTCCACCATACAATGCCGCTGTACTCGGAGTCACCTAGTGCAG”, the binding signal is 13300 fluorescence intensity (a.u.).

Consider “TTCTCTAATTGAGTCAAAAGTGTCATTTGTCGTTTTGTCGCGGAGTCACCTAGTGCAG”, for which the binding signal is 44200 fluorescence intensity (a.u.).

With “ACAAATTAGCTTGAACATACATAATTTCCAGACAAGGAAACGGAGTCACCTAGTGCAG”, the binding signal is 19600 fluorescence intensity (a.u.).

“TTTGATATAATTGTAGTGGCATATATGATAAATCAGTATACGGAGTCACCTAGTGCAG”: the binding signal is 7900 fluorescence intensity (a.u.).

As to “CCTAAATGACTTATTTGTCCATTTTGTGTCTTACGAGTTGCGGAGTCACCTAGTGCAG”, the binding signal was 17800 fluorescence intensity (a.u.).

Regarding “TTTGACAGATGTAATTATAGTACAATCGTAGTGTAATTACCGGAGTCACCTAGTGCAG”, the binding signal is 34300 fluorescence intensity (a.u.).

As to “CTTCCAATTTATTGGCTCACAATACATTATCTAAATCCCTCGGAGTCACCTAGTGCAG”, the binding signal was 4520 fluorescence intensity (a.u.).

Consider “GCTGACATGATTTGGATCCTTAAACACCACAGACCAGATGCGGAGTCACCTAGTGCAG”, for which the binding signal is 27000 fluorescence intensity (a.u.).

As to “TTCAATGAAACTAATTTAATGTCATAGATGTTGGTATACTCGGAGTCACCTAGTGCAG”, the binding signal is 4920 fluorescence intensity (a.u.).

On to “ATACCATTAAATTGAACTTTAATTAAGTGCATATGCCTAACGGAGTCACCTAGTGCAG”, for which the binding signal was 22700 fluorescence intensity (a.u.).

Take “AACCTGCCAAACTGCCAATCCCCGTCGTCTCGTCTTCCCTCGGAGTCACCTAGTGCAG”: the binding signal was 3920 fluorescence intensity (a.u.).

“TAGCTAATAATTAATTAATTACGTCCTAATAAGCTATTGACGGAGTCACCTAGTGCAG”: the binding signal is 35900 fluorescence intensity (a.u.).

For the sequence “TACTAATTTTGCTAACATAAGATACCGTACTCTCTTAATTCGGAGTCACCTAGTGCAG”, the binding signal is 12100 fluorescence intensity (a.u.).

Consider “TCAATAATTTGAATTTGAATTTCAAATTATGACAACTTCACGGAGTCACCTAGTGCAG”, for which the binding signal is 18100 fluorescence intensity (a.u.).

For the sequence “CTGATTTGTAACTCGTTTTGCCGCATAGTAGTTGAAAACGCGGAGTCACCTAGTGCAG”, the binding signal is 19700 fluorescence intensity (a.u.).

Consider “ATTTGACTCGCAAATTAATCGCAATCTGTGTAATTAGTTTCGGAGTCACCTAGTGCAG”, for which the binding signal was 20600 fluorescence intensity (a.u.).
